# This is one part of the list.
# Molecular target: no compound (DMSO)
# Test: log2 fold change of degron read counts, EGFP-low vs EGFP+ sorted cells; higher = lower degron-EGFP level without compound (poor expression or instability)
# Details: compound: DMSO control; 18 h
# 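Also: jurkat cells carrying a lentiviral library of mutant zinc finger degrons fused to EGFP plus mCherry, mCherry+ cells FACS sorted, degron abundance counted by next-generation sequencing.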
row,Sequence,log2 fold change of degron read counts
1,FECDICGAIFTQKGNLLRHIKL,-1.96
2,FYCEVCGAQFTQKGNLLRHIKL,-0.686
3,FLCEICGHNFTQKGNLLRHIKL,-1.31
4,FVCEVCGAEFTQKGNLLRHIKL,-1.76
5,FTCPICGHAFTQKGNLLRHIKL,-0.62
6,LCCEICGFWCTQKGNLLRHIKL,0.929
7,LKCEICGFGCTQKGNLLRHIKL,-0.223
8,FSCPICGRWFTQKGNLLRHIKL,0.603
9,FQCNICGAVFTQKGNLLRHIKL,-0.6
10,LCCPICGFYCTQKGNLLRHIKL,1.46
11,FGCNICGATFTQKGNLLRHIKL,-0.466
12,FWCNQCGRNFTQKGNLLRHIKL,0.879
13,FACNICGALFTQKGNLLRHIKL,0.00982
14,LSCPICGFQCTQKGNLLRHIKL,0.173
15,FCCNICGARFTQKGNLLRHIKL,-1.29
16,FTCPQCGAPFTQKGNLLRHIKL,-0.958
17,FDCDICGAHFTQKGNLLRHIKL,-1.4
18,FLCDQCGAPFTQKGNLLRHIKL,-1.51
19,FACPICGRIFTQKGNLLRHIKL,0.285
20,FMCEVCGAHFTQKGNLLRHIKL,-2.17
21,FSCNQCGRMFTQKGNLLRHIKL,-0.287
22,FNCNQCGRDFTQKGNLLRHIKL,-0.816
23,FWCEICGATFTQKGNLLRHIKL,-1.06
24,FVCDVCGAPFTQKGNLLRHIKL,-1.48
25,FMCDQCGAWFTQKGNLLRHIKL,-0.66

row,Sequence,log2 fold change of degron read counts
1,FECPICGAFFTQKGNLLRHIKL,-0.312
2,FDCEICGAHFTQKGNLLRHIKL,-2.14
3,FDCPICGRKFTQKGNLLRHIKL,-0.00663
4,FRCPVCGAKFTQKGNLLRHIKL,-0.128
5,FFCNQCGRQFTQKGNLLRHIKL,0.0893
6,FCCNVCGAIFTQKGNLLRHIKL,-0.0474
7,FDCPICGRQFTQKGNLLRHIKL,0.0294
8,FYCPICGAGFTQKGNLLRHIKL,-0.21
9,FMCEVCGASFTQKGNLLRHIKL,-2.35
10,FWCEICGHAFTQKGNLLRHIKL,-0.849
11,FHCPVCGAAFTQKGNLLRHIKL,-0.583
12,FVCNICGAIFTQKGNLLRHIKL,0.169
13,FDCNQCGAHFTQKGNLLRHIKL,-0.701
14,FFCNQCGHEFTQKGNLLRHIKL,-0.606
15,FVCNICGASFTQKGNLLRHIKL,-1.22
16,FYCNICGADFTQKGNLLRHIKL,-0.256
17,FNCNQCGRWFTQKGNLLRHIKL,0.71
18,LKCPICGFWCTQKGNLLRHIKL,1.09
19,LRCNQCGFQCTQKGNLLRHIKL,0.356
20,FTCPQCGAVFTQKGNLLRHIKL,-0.689
21,FRCPICGRGFTQKGNLLRHIKL,0.175
22,FTCDVCGACFTQKGNLLRHIKL,-1.27
23,LACNQCGFYCTQKGNLLRHIKL,1.34
24,LYCNQCGFLCTQKGNLLRHIKL,1.53
25,FICNVCGAMFTQKGNLLRHIKL,-0.378
